Laboratory results from the supplement of paper PMC3334620.
In all, about 33,000 sequences were measured (“E-score (-0.5 to 0.5)”: median about -0.01, highest 2% from about 0.26 on). The list shows a part of the results.

The sequences below were run against Ste12 (UniProt P13574) (assay: PBM E-score (8-mer binding enrichment) (E-score (-0.5 to 0.5)); higher = stronger / more preferred TF binding; most listed sequences are background and not binding sites). Conditions: protein concentration: 200 nM; construct: GST-DNA-binding domain.
In short: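 Using PURExpress in vitro transcription/translation, GST-tagged yeast transcription factors were made in full-length or DNA-binding-domain form. These were applied at about 100-200 nM to double-stranded universal all-10-mer Agilent arrays, and bound protein was detected with fluorescent anti-GST. Scans were normalised with masliner before the Universal PBM Analysis Suite assigned E-scores to ungapped eight-base words pooled with their reverse complements.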

Sequence | PBM E-score
GAGATTGA | 0.0793
ACCATAAG | -0.16
ATATCTGA | 0.103
AGACGACA | -0.0597
GTTGAAGA | -0.0561
ACCATTTA | 0.0557
CTGCGGTA | -0.00141
CCAATGCG | -0.244
GAATATTA | 0.235
GGGCGTAC | 0.0105
TTACCTAA | 0.114
CGCACGTA | -0.104
ACGCCCCC | 0.147
CCCAGCTA | -0.102
GCTCATCC | -0.171
AAACCGCC | 0.212
CAGACGTA | -0.138
GACCAAGA | -0.107
TTCACAAA | 0.256
CAGGGATA | 0.0131
AAACGCAC | 0.147
GAGAACTC | -0.0376
AACAGCCC | 0.00748
ATCGTACG | -0.0617
CGCGATAG | -0.0558

Sequence | PBM E-score
AGTGCCTC | -0.229
CTGCATGC | -0.0284
AGGGTCTC | -0.153
CTCCGCGC | -0.0986
AATAGCCA | -0.114
GTTGCAAA | 0.0824
AATTAATC | 0.105
GATCTCAC | -0.0416
TCTCGTCA | -0.0159
ATCTATGC | -0.0236
CCGACTAA | 0.104
AAGATCAA | 0.101
GACACTAA | 0.0103
ACGATTCG | -0.0626
GGCTTAAC | 0.0764
ATGAGCGG | 0.0137
CGTGGAGA | -0.109
AAGGGATG | -0.0502
TCCACCGA | -0.0902
CGCTGCTA | -0.0803
ACGTCCAA | 0.122
GTTGGTAA | 0.0911
GAGGCAAC | -0.329
AGAGAGTA | -0.0904
TCTGGAAA | 0.0671

Sequence | PBM E-score
GCTTATAC | -0.174
CCCCTCGA | 0.18
CAATGGGC | 0.0968
CCCAGGTA | -0.0429
CCCAATAA | 0.216
ACGAGGGG | -0.032
GCGTTGAC | -0.235
TGGAGCAA | 0.117
AGAATAGC | 0.0321
ATCCTCGG | 0.0581
AGTCGTAC | -0.335
ATCAGACG | 0.0895
ACTGCGGG | -0.12
AAATGACT | -0.0927
GCAGGTTA | -0.0591
ATCTGCTC | -0.0652
AAACACAT | 0.183
AGGGCCCT | -0.168
TACTGCTA | -0.0443
AACAACAA | 0.253
CAACGGCC | -0.0409
AAGTGTAA | 0.0939
ACTCACTG | -0.0486
CACCCGTC | -0.0737
CAAGTGGG | -0.0691

Sequence | PBM E-score
AAACGCGC | 0.185
CGTGTGCA | -0.23
AGCAAGGA | -0.241
ACAGGTAG | -0.12
AGATCCAC | -0.0394
AATGTGAC | 0.0792
GAGCGGAA | 0.143
CACGAGGG | -0.00095
AGGACTAA | -0.113
AAAGTCAT | 0.124
AGCCATTG | 0.0464
GCCCAGAA | -0.171
CCTTAGCG | 0.104
CTAGTAGC | 0.0825
CCAGCGGC | -0.0215
ACTCATAC | 0.128
CTTAGACA | -0.0564
AAGGTCTA | -0.0425
AATCGCAT | 0.134
ATTGAAGC | -0.061
TATTTGAA | 0.172
CCAACACA | 0.0801
CCGCTGAA | 0.0841
CCTGCTCA | -0.163
ACTACGAG | -0.132

Sequence | PBM E-score
AAAAAGGT | 0.0926
AAGTAACA | 0.291
GCCTTGAC | -0.236
ACGCCGCC | -0.0333
AGTGAGTA | 0.0652
AACGCGAA | 0.257
GTCGAGTA | -0.011
GTTAGACA | 0.0892
CGTGTGTA | 0.0989
CACTTTTA | 0.0509
AATCCGGA | 0.125
AATGCGTG | -0.0284
CGCCTCAA | 0.00056
GGCATGAC | -0.135
TACTAATA | 0.217
ATAACTAT | 0.0787
CTCATCTC | -0.0387
GCGCGCAC | 0.153
CGGTGACG | -0.0125
CAATACCA | 0.0598
TCTACTAA | 0.056
GGTAGAGA | 0.047
AAATCGCG | 0.129
TCCATCGA | -0.0656
TGCGCGAA | -0.0288

Sequence | PBM E-score
GTACCAAA | 0.0457
GGGTTGTA | -0.0262
CGAGGACG | -0.239
ATGGATCC | -0.0127
GATTCGAC | 0.12
ATGGGGTA | -0.0735
TCGGAAGA | -0.00115
ATTTACCG | 0.216
GTCCGGTA | -0.0776
CGTATTTC | 0.132
AACCTCAA | 0.00447
CATATGCG | 0.0335
GGCTCTTA | -0.00744
AGTGGTTA | 0.124
AGGGTAGG | -0.115
CCATACGC | 0.139
AAGCCTTA | -0.143
GTCGTGCA | -0.0983
AAAGACTG | -0.334
AGTTATTC | -0.0103
ATACAGTG | 0.162
ACTTGGTA | -0.152
CTGGGGAC | -0.25
GGGGTACC | -0.0131
TAGTAGAA | 0.182

Sequence | PBM E-score
ATTGTAGA | 0.144
GGGCTTAA | 0.148
GCGGCGAA | 0.00331
GAGATCGA | 0.0858
GCTGACCC | -0.154
ACGATCAA | -0.0466
CAACTGGC | -0.24
CCTCCACC | 0.107
ACTTTACT | 0.0663
ACGGAGCA | -0.0453
CGTTAACA | -0.0349
CGGGAGTC | -0.12
ATAACAGG | 0.0055
AATAACGT | 0.062
CATGGATA | -0.0782
GCGAAAAC | -0.0118
AACACTTA | 0.252
CACACTGG | -0.275
AGAAGCGA | -0.053
CAATCAGA | -0.0489
ACAGTCAG | -0.0315
ACAATTAA | 0.292
CACCAACC | -0.0929
CGTGTCGC | 0.115
AAGAGCAC | -0.143

Sequence | PBM E-score
CCACGCGA | 0.0282
GAGCCATA | -0.0316
AAACCATA | 0.144
CTCGCTAC | -0.129
GATAGTGA | 0.239
CCAAGGGG | 0.0321
AAGATGAG | -0.0966
GAGCTAGC | -0.146
TCAACCCA | 0.0128
AGGTAAGC | -0.0519
ATGAGTGA | 0.0403
CATGGGGC | -0.0598
GCAGCCAA | 0.00098
CAGAAGTA | 0.174
CTCGGCTC | -0.0288
CCAGAATC | -0.105
GCTCTAAC | -0.0314
ATTCTGAC | 0.0839
CACTGAGG | 0.0584
GATAATCA | 0.0908
ATGTGAAG | 0.25
TGTAGTAA | 0.0284
AATTGAAA | 0.412
CATCATTC | 0.0217
ATCGCGAA | 0.135

Sequence | PBM E-score
AAGGCGAT | -0.139
CTGGGCGA | -0.188
CGAAATCA | 0.216
CGAGAAGA | -0.0647
ATCGACCG | -0.0422
CGAGTTGC | 0.0105
GCCTCACA | 0.0125
ATCTGCAT | 0.0274
ACTGTTAT | 0.142
AAGTAACT | 0.0625
AGTGATAG | -0.118
TGCACGAA | 0.207
TCAAAAAA | 0.32
CCAGCCGG | -0.121
TCAGTGGA | -0.028
ACAAACGA | 0.2
ACACTCCA | 0.0449
ATTACGTG | 0.0722
CGCTTACG | -0.345
GGATCTAA | 0.064
CTAACCCC | -0.104
GAGGGATA | -0.18
GTCGGCTA | -0.108
GGATCGTA | -0.00637
CCATTGAA | 0.0002

Sequence | PBM E-score
CTATCAGC | 0.136
ACACGTCA | -0.0589
ATTCCTCA | 0.0459
CCGAAACA | 0.376
CTTGACTA | -0.106
AGCTGGAA | -0.135
CTCGCGAC | 0.0527
CCAAGACA | 0.0816
TACGGGCA | -0.0396
ATAGATAG | 0.0401
ACGCACAT | -0.0688
AGTCTTTA | -0.234
AGTATCAT | 0.113
CTCATGAC | 0.0559
AGACGGCG | -0.147
AATCTGTG | -0.0157
AACTAGCG | 0.0845
CCAAGCAG | 0.0354
AGGCGTGG | -0.219
AACCAGTC | -0.053
AGGGGGTA | -0.105
AGCTGGCA | 0.0291
CCTTGCGA | -0.0403
AAACTGGC | 0.124
ATCAGAAC | -0.0373

Sequence | PBM E-score
GCAACGGC | 0.0446
ATACGGGG | 0.0547
CTTTCGAC | -0.0743
GGCACGTA | -0.00609
AGTCGGAG | -0.00714
GGCCCTCA | -0.152
AGCCCTGG | -0.173
GCCACTAC | -0.111
ACACATTA | 0.148
ACGCATAA | 0.0839
AAAGTACG | 0.067
GTCATACA | -0.0326
GTTTGATA | 0.301
CGCAATTA | 0.125
AATAGTAG | 0.0106
ACAAAGCT | -0.0152
AACACACT | 0.124
CCTAGCGC | -0.0769
CAACCGTC | -0.252
ACTTTCAC | 0.139
GCCTTCAA | -0.02
ATATCGCC | -0.0473
AGTGCATG | -0.204
TAGCCAAA | 0.221
ATATTGCA | 0.104

Sequence | PBM E-score
TGACCCAA | -0.047
CTCTAGTC | -0.323
ATTATACC | 0.0986
CGCACGTC | -0.0182
GCAATTCA | -0.185
GAGCCGTA | -0.0366
CACCAATA | 0.00356
ACCAGATA | 0.0459
AGACTAAT | -0.0229
CATGTAAC | 0.245
TAGAGTGA | -0.0179
CCCCACTC | 0.121
AGCTGGCG | -0.256
ACCTGCTC | -0.0508
ACCGTCAC | -0.141
CTTAGGCA | -0.304
CGTTGTAG | 0.049
AACGCTTA | -0.0484
TATGCGAA | 0.091
AAGAGGTA | 0.114
GACATCTC | -0.0784
CTGGGGTC | -0.0744
CGCTATTA | 0.0181
AGGTATCG | 0.167
CAAAGGAA | 0.16

Sequence | PBM E-score
AAGTCTAT | -0.0803
CATTTGGG | -0.0669
AACCTGTA | 0.0256
GACCCCGC | 0.199
ACTATTTG | 0.066
AGTGGACG | 0.0409
ATGCCGAA | 0.0285
GAAGACGA | -0.0462
ACGTTGCA | 0.0593
ATTCGAAT | 0.268
CCACCCTC | 0.119
CCCAGGAA | -0.0197
CTTGGCTA | 0.0252
CCTGGACG | -0.194
AACTAGGT | 0.0822
ACGTTCCA | 0.135
ACGCAATC | -0.0921
AACTGAGG | 0.139
GGTGAACA | -0.235
AATGACTG | -0.157
AGCAATTA | 0.0971
AACCACAA | 0.185
GCGCCTTA | -0.0184
CGAAGCCA | -0.0797
AGGTACAA | -0.158

Sequence | PBM E-score
ATTCCGAC | 0.112
CGGAGGCA | -0.0443
CGACAGAC | -0.00066
GTAACTAC | 0.0102
AAATCTCT | 0.151
AGCGGTTC | 0.00472
ACACCTAA | 0.0318
ACGGAATG | -0.0943
GGACTGAA | -0.0764
CCAGTGTC | -0.0683
AATCCGAT | 0.188
CAGAAACA | 0.156
GCAAACTA | 0.207
ACTTGAAG | 0.119
ATTCATCG | 0.0816
CGTGCCGC | -0.168
ACACTGAG | 0.057
ATCTCTGA | -0.0389
CCTAACCG | -0.216
